Source: PubChem BioAssay AID328 (DTP/NCI, 2004)
Where “and” joins values, the source holds several entries; their conditions need not be identical. Equal entries are not always repeated. This continues a long series; more values of the same kind are listed elsewhere. Toxic doses and inconclusive results are not listed. The calls were made as follows: active = survival T/C of 150% or more; inactive = T/C below 125% in these data. Starred links: 1 amine or outer side, 2 acyl side, 3 side chain; linkers in the order of their positions; H or OH if unused. Positions of bridges follow the written chain, without caps; N, C: chain ends. Non-standard residues stand in square brackets, D forms with d. Residues, ends and D or L forms follow the SMILES beside them. Chains are numbered I, II in the order given. Actinocin(9to1) = Cc1c2oc3c(C)ccc(C(=O)[*:1])c3nc-2c(C(=O)[*:2])c(N)c1=O; aThr = C[C@H](O)[C@H](N)C(=O)O; NMeV = CN[C@H](C(=O)O)C(C)C; Sar = CNCC(=O)O

Test system: BDF1 mice, P388 leukemia ip, median survival T/C
Assay: NCI In Vivo Anticancer Drug Screen. Data for tumor model P388 Leukemia (intraperitoneal) in B6D2F1 (BDF1) mice
Settings: endpoint: median survival time, higher = longer survival
Procedure, shortened: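 Compound-treated tumour-bearing mice were compared with vehicle-treated controls. Survival was recorded, and the value is the treated-group measurement divided by the control-group measurement (T/C).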

Measured: T/C

COC(=O)[C@@]12OC[C@]34[C@H]([C@@H](O)[C@@H]1O)[C@@]1(C)CC(=O)C(O)=C(C)[C@@H]1C[C@H]3OC(=O)[C@H](OC(=O)/C=C(\C)C(C)C)[C@@H]24
active: dose: 0.25 mg/kg/injection, schedule: Q01DX009 (ip), vehicle: saline with Tween-80 = 201 % of control | dose: 0.25 mg/kg/injection, schedule: Q01DX009 (ip), vehicle: saline 195 % of control | dose: 0.5 mg/kg/injection, schedule: Q01DX009 (ip), vehicle: saline with Tween-80 = 191 % of control | dose: 0.5 mg/kg/injection, schedule: Q01DX009 (ip), vehicle: saline 195 % of control | dose: 0.8 mg/kg/injection, schedule: Q01DX009 (ip), vehicle: saline + alcohol 199 % of control | dose: 1.0 mg/kg/injection, schedule: Q01DX009 (ip), vehicle: other 194 % of control | dose: 1.0 mg/kg/injection, schedule: Q01DX009 (ip), vehicle: saline with Tween-80 = 203 % of control and 204 % of control and 213 % of control | dose: 1.0 mg/kg/injection, schedule: Q01DX009 (ip), vehicle: saline 205 % of control | dose: 1.6 mg/kg/injection, schedule: Q01DX009 (ip), vehicle: saline + alcohol 205 % of control | dose: 2.0 mg/kg/injection, schedule: Q01DX009 (ip), vehicle: saline 195 % of control | dose: 266.0 micrograms/kg/injection, schedule: Q01DX009 (ip), vehicle: saline + alcohol 200 % of control | dose: 600.0 micrograms/kg/injection, schedule: Q01DX009 (ip), vehicle: saline + alcohol 215 % of control | dose: 720.0 micrograms/kg/injection, schedule: Q01DX009 (ip), vehicle: saline + alcohol 193 % of control | dose: 1200.0 micrograms/kg/injection, schedule: Q01DX009 (ip), vehicle: saline + alcohol 205 % of control

Cc1c2oc3c(C)ccc(C(=O)N[C@@H]4C(=O)N[C@H](C(C)C)C(=O)N5CCC[C@H]5C(=O)N(C)CC(=O)N(C)[C@@H](C(C)C)C(=O)O[C@H]4C)c3nc-2c(C(=O)N[C@@H]2C(=O)N[C@H](C(C)C)C(=O)N3CCC[C@H]3C(=O)N(C)CC(=O)N(C)[C@@H](C(C)C)C(=O)O[C@H]2C)c(N)c1=O (I: [aThr][dV]P[Sar][NMeV] / II: [aThr][dV]P[Sar][NMeV]; ester I:1-I:C, II:1-II:C; linker I:N-II:N via Actinocin(9to1))
active: dose: 0.15 mg/kg/injection, schedule: Q04DX003 (ip), vehicle: saline 222 % of control | dose: 0.2 mg/kg/injection, schedule: Q01DX001 (ip), vehicle: saline 204 % of control and 216 % of control | dose: 0.2 mg/kg/injection, schedule: Q04DX003 (ip), vehicle: saline 209 % of control | dose: 0.25 mg/kg/injection, schedule: Q04DX003 (ip), vehicle: saline + alcohol 212 % of control | dose: 0.25 mg/kg/injection, schedule: Q04DX003 (ip), vehicle: saline 203 % of control and 218 % of control | dose: 0.28 mg/kg/injection, schedule: Q01DX001 (ip), vehicle: saline 206 % of control | dose: 0.6 mg/kg/injection, schedule: Q01DX001 (ip), vehicle: saline 200 % of control | dose: 6.2 micrograms/kg/injection, schedule: Q01DX010 (ip), vehicle: saline 200 % of control | dose: 12.0 micrograms/kg/injection, schedule: Q01DX010 (ip), vehicle: saline 220 % of control | dose: 12.5 micrograms/kg/injection, schedule: Q01DX009 (ip), vehicle: saline + alcohol 218 % of control | dose: 12.5 micrograms/kg/injection, schedule: Q01DX009 (ip), vehicle: saline 205 % of control | dose: 12.5 micrograms/kg/injection, schedule: Q01DX010 (ip), vehicle: other 218 % of control | dose: 15.0 micrograms/kg/injection, schedule: Q03HX024 (ip), vehicle: saline 213 % of control | dose: 20.0 micrograms/kg/injection, schedule: Q03HX024 (ip), vehicle: saline 218 % of control | dose: 21.6 micrograms/kg/injection, schedule: Q01DX009 (ip), vehicle: saline + alcohol 205 % of control | dose: 25.0 micrograms/kg/injection, schedule: Q01DX009 (ip), vehicle: saline + alcohol 206 % of control | dose: 25.0 micrograms/kg/injection, schedule: Q01DX009 (ip), vehicle: water 221 % of control | dose: 25.0 micrograms/kg/injection, schedule: Q01DX010 (ip), vehicle: other 218 % of control | dose: 25.0 micrograms/kg/injection, schedule: Q01DX010 (ip), vehicle: saline 210 % of control | dose: 150.0 micrograms/kg/injection, schedule: Q04DX003 (ip), vehicle: water 206 % of control | dose: 200.0 micrograms/kg/injection, schedule: Q04DX003 (ip), vehicle: saline 213 % of control | dose: 300.0 micrograms/kg/injection, schedule: Q04DX003 (ip), vehicle: saline 205 % of control
